According to patent US9907800B2, “Kinase inhibitors and method of treating cancer” (University Health Network, priority 2010, dated 2018):

How the values were obtained:
HUV-EC-C cells = assay: In vitro angiogenesis assay (tube formation); format: cell-based; details: 4 hr, FIGS. 1 and 2
Procedure: Activity against these RTKs can result in antiangiogenic activity which is associated with slowed tumor growth and/or tumor regression. To measure the antiangiogenic effects of compounds of the invention, selected examples were tested in an angiogenesis assay as described below.
HUV-EC-C cells were obtained from the American Type Culture Collection (ATCC, CRL-1730), and were used at early passage for the assay. The in vitro Angiogenesis Assay Kit (Chemicon) was used according to the manufacturer's recommendation. An ice-cold mixture of ECMatrix was transferred into a precooled 96-well plate. After the matrix solution had solidified (>1 hr incubation at 37° C.), 8,000 cells were mixed with the appropriate inhibitor concentration (in 100 microliters EGM-2) and plated into each well. The clinical antiangiogenic, Sutent was used as a positive control in comparison to a compound of the invention, A13. After incubation at 37° C. for 4 hr, tube formation was inspected. Two methods, pattern recognition and branch point counting, were used to quantify the progression of angiogenesis and expressed as a percentage of the control tube count (FIGS. 1 and 2).

Aurora A = Aurora A (Homo sapiens (Human), UniProt O14965); assay: Aurora A inhibition assay (Z-Lyte); format: biochemical; details: read-out: Aurora A relative inhibition percentage
UniProt O14965, sequence (O14965 whole entry): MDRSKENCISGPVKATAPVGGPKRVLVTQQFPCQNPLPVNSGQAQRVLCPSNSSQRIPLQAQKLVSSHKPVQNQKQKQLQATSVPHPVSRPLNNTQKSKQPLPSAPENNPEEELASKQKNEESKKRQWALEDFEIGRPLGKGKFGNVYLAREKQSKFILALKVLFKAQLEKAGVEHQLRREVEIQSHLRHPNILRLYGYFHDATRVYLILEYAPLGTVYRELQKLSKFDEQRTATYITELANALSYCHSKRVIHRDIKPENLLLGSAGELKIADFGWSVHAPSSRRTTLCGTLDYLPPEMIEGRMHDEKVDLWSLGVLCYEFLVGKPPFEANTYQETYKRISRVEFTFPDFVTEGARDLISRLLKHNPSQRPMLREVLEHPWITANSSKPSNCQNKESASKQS

AMPKalpha = assay: CEREP kinase panel (HTRF); format: biochemical, human
FLT3 = FLT3 (Homo sapiens (Human), UniProt P36888); assay: FLT3 inhibition assay (Z-Lyte); format: biochemical; details: read-out: Flt3 IC50 Ranges
human PLK4 = human PLK4 (Homo sapiens (Human), UniProt O00444); assay: PLK4 inhibition assay (indirect ELISA); format: biochemical; details: read-out: PLK4 IC50 Ranges

O=C1Nc2ccccc2[C@]12C[C@H]2c1ccc2c(/C=C/c3ccncc3)n[nH]c2c1 (relative stereo) [Example A22, (1R*,2S*)-(E)-2-(3-(2-(pyridin-4-yl)vinyl)-1H-indazol-6-yl)spiro-[cyclo-propane-1,3′-indolin]-2′-one]
antiangiogenic effect (tube formation) (HUV-EC-C cells): anti-agiogenic effects at submicromolar concentrations

COc1ccc2c(c1)[C@]1(C[C@H]1c1ccc3c(-c4ccc(C5CCNCC5)cc4)n[nH]c3c1)C(=O)N2 (relative stereo) [Example A122, (1R*,2S*)-5′-methoxy-2-(3-(4-(piperidin-4-yl)phenyl)-1H-indazol-6-yl)spiro[cyclopropane-1,3′-indolin]-2′-one 2,2,2-trifluoroacetate]
inhibition at 1 µM (Aurora A): < 50%

CCc1ccc2c(c1)[C@]1(C[C@H]1c1ccc3c(/C=C/c4ccc(CN(C)C)cc4)n[nH]c3c1)C(=O)N2 (relative stereo) [Example A167, (1R*,2S*)-(E)-2-(3-(4-((dimethylamino)methyl)styryl)-1H-indazol-6-yl)-5′-ethylspiro[cyclopropane-1,3′-indolin]-2′-one 2,2,2-trifluoroacetate]
inhibition at 1 µM (Aurora A): > 50%

COc1ccc2c(c1)[C@]1(CC1c1ccc3c(-c4ccc(N5CCN(C)CC5)nc4)n[nH]c3c1)C(=O)N2 (single isomer, unassigned) [Example A13, (1R*, 2S*)-5′-Methoxy-2-(3-(6-(4-methylpiperazin 1-yl)pyridin-3-yl)-1H-indazol-6-yl)spiro[cyclopropane-1,3′-indolin]-2′-one]
antiangiogenic effect (tube formation) (HUV-EC-C cells): anti-agiogenic effects at submicromolar concentrations
% Inhibition @ 10 uM (AMPKalpha): 8%

COc1ccc2c(c1)[C@]1(C[C@H]1c1ccc3c(-c4ccc(N5CCN(C)CC5)cc4)n[nH]c3c1)C(=O)N2 [Example A39, (1R,2S)-5′-methoxy-2-(3-(4-(4-methylpiperazin-1-yl)phenyl)-1H-indazol-6-yl)spiro[cyclopropane-1,3′-indolin]-2′-one hydrochloride]
IC50 (FLT3): < 0.1 µM
IC50 (human PLK4): < 0.1 µM

Structures can show the parent of a compound that is named as a salt.
